Data as given in the RNAGym collection of RNA variant scans (doi:10.1073/pnas.2313332121).
Variants at the floor of the assay are shown more often than the library holds them.

B1: TPR 5TU (parent)
chain: GGAUCUUCUCGAUCUAACAAAAAAGACAAAUCUGCCACAAAGCUUGAGAGCAUCUUCGGAUGCAGAGGCGGCAGCCUUCGGUGGCGCGAUAGCGCCAACGUUCUCAACUAUGACACGCAAAACGCGUGCUCCGUUGAAUGGAGUUUAUCAUG

Variants of: B1
Assay: polymerase ribozyme fitness, log enrichment relative to wild type (log ratio); higher = more active; in vitro selection for triplet polymerase activity
Summary of the method: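 One round of in vitro selection, in triplicate, was applied to PCR-built, transcribed mutant libraries of each subunit of a heterodimeric triplet polymerase ribozyme. The steps were annealing with a biotinylated primer, partner subunit and triplets, incubation frozen at −7 °C, gel excision of extended constructs, streptavidin-bead capture and RT-PCR. Fitness is the logarithm, base 2, of genotype enrichment over wild-type enrichment from inverse-variance-weighted replicate averages of Illumina-sequenced inputs and outputs, keeping genotypes with ≥10 input reads and ≥1 read per output.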

| Variant | polymerase ribozyme fitness (log ratio) |
| --- | --- |
| A28U A30U A39U G50C C57G C75G U82A G83C G124U | ≤ -4.2 |
| A28G U61G C95A A97U A107U | ≤ -4.2 |
| A28U U77C | ≤ -4.2 |
| A28G A52C U55A G67C C149G | ≤ -4.2 |
| A29U G48C A52C G58C U90G G141U A147C | ≤ -4.2 |
| A29C G50C C79G A115U | ≤ -4.2 |
| A28G A40U A49C G50C C87A U144G | ≤ -4.2 |
| A29C A37U U45G G83A A113G A147U | ≤ -4.2 |
| A28C U82A | ≤ -4.2 |
| A29U G65A C87A A91C U109G | ≤ -4.2 |
| A28U A39U C57A C87U C103U | ≤ -4.2 |
| A29U A91G C96G A107U U151C | ≤ -4.2 |
| A28U A52U U53G G88C C108G | ≤ -4.2 |
| A29U A52C G58C C79A G84A A142G | ≤ -4.2 |
| A29U A41G C75U C123U G126A | ≤ -4.2 |
| A28G C43A A49C C85G U90C A122G U130G | ≤ -4.2 |
| A28U G42A G74U | ≤ -4.2 |
| A29C A41U U56G C57A A73G U102C A142C | ≤ -4.2 |
| A29G G42A G84U C87A G128A | ≤ -4.2 |
| A29U G81C C93U | ≤ -4.2 |
| A29C A40C A52C C87U A97G C99G A115U | ≤ -4.2 |

| Variant | polymerase ribozyme fitness (log ratio) |
| --- | --- |
| A28U A49G C51U C87A C123A G124A A150C G152U | ≤ -4.2 |
| A29C G34C G58C | ≤ -4.2 |
| A29G G86U | ≤ -4.2 |
| A29C G74C | ≤ -4.2 |
| A29C A39U C96A | ≤ -4.2 |
| A28G G50A U56C C63A G83A C96G | ≤ -4.2 |
| A28G C43U A113U G117A A138G | ≤ -4.2 |
| A28G A39C C87A G117A A121U G140U | ≤ -4.2 |
| A29G G68A G83C C105A G141C | ≤ -4.2 |
| A29C C43U G48C U61G C96U | ≤ -4.2 |
| A28C U44A G59A C125A G143C | ≤ -4.2 |
| A28C A47U C85G C93A C95U G100U | ≤ -4.2 |
| A29U C35U U55A A64U G81C G92A U101G A110U | ≤ -4.2 |
| A28C C85A A121C G143C | ≤ -4.2 |
| A28U C87U A119C A138U G140C | ≤ -4.2 |
| A29C G46C C79G A91U A107G U145G | ≤ -4.2 |
| A29U G71U C72U A89G C93A C118A U145A | ≤ -4.2 |
| A29G A60C U61A C63U G68C U102G A110G U127A | ≤ -4.2 |
| A28G A52U G84A C103A | ≤ -4.2 |
| A28C C87G U139G | ≤ -4.2 |
| A28U C75U G84U G86A C93U A106G A113U | ≤ -4.2 |

| Variant | polymerase ribozyme fitness (log ratio) |
| --- | --- |
| A28C G48C U56A U82G G86A G124A G152U | ≤ -4.2 |
| A29G A37C G68C C85A A106U U134C | ≤ -4.2 |
| A29C G88A | ≤ -4.2 |
| A29U A47U A60G G83U G84U U144A | ≤ -4.2 |
| A29U G59A G83C C125U | ≤ -4.2 |
| A29U C32A U90G G124C | ≤ -4.2 |
| C27U G59A G67C G86C C99U | ≤ -4.2 |
| A29C C57U U78G G141A | ≤ -4.2 |
| A29G G48A C75U | ≤ -4.2 |
| A28C A40C C54U C87A C93G A115U A150G | ≤ -4.2 |
| A29C A47U A91U C93A A110C U111G U135A | ≤ -4.2 |
| C27U C35A G92C A98U G117A | ≤ -4.2 |
| A28U C35U U44G G94A A120U C125U G141C | ≤ -4.2 |
| A28U C32A C85A G141A | ≤ -4.2 |
| A28C G50A C69G U78C G88U A122G | ≤ -4.2 |
| A28U C38A A41C A91U C132U U135G | ≤ -4.2 |
| A28C G83C G128U | ≤ -4.2 |
| A29G A30G U55A G92U C116A A150C | ≤ -4.2 |
| A28G U44G U82G C85G A89G | ≤ -4.2 |
| A29U C36U G62A U109G | ≤ -4.2 |
| C27U C85U A107G G124C | ≤ -4.2 |

| Variant | polymerase ribozyme fitness (log ratio) |
| --- | --- |
| A28C A37U C75G | ≤ -4.2 |
| A28G A91C G126A | ≤ -4.2 |
| A28C C69G G92U A107G U145C C149A | ≤ -4.2 |
| C27U C38U A52U C85G G88U U102G | ≤ -4.2 |
| A29C C96G | -4.15 |
| A28C G34U C93G U148G | ≤ -4.2 |
| A29G U144A | ≤ -4.2 |
| A29G A49C A64G G83C C95U C108U C114G U135G G136U G152A | ≤ -4.2 |
| A29U C96U | -3.19 |
| C27U G83A C95U U102A G126C | -3.56 |
| A28C C51U U55A C57U U78G G83A U144G | ≤ -4.2 |
| A28C U33C A40G U55A G59A A60C C75G G80A C103G C116G G141C A150G | ≤ -4.2 |
| A29G C43U A66C C96U C103A | ≤ -4.2 |
| A28U U44A C76U C125G | ≤ -4.2 |
| A28C C51A U56C C69G C79G U145C | ≤ -4.2 |
| A28U G50U G71A G112A A150C | ≤ -4.2 |
| A28U A39C G70A C96G C105U A120U C125A C129G | ≤ -4.2 |
| A29G C51G U56A C93A C95G C149G G152A | ≤ -4.2 |
| A28C U55G U78C U82G G86U | ≤ -4.2 |
| A28C U134C | ≤ -4.2 |
